The RNAGym collection of RNA variant scans (doi:10.1073/pnas.2313332121)
Variants at the background level are over-represented here.

B1: TPR 5TU (parent)
chain: GGAUCUUCUCGAUCUAACAAAAAAGACAAAUCUGCCACAAAGCUUGAGAGCAUCUUCGGAUGCAGAGGCGGCAGCCUUCGGUGGCGCGAUAGCGCCAACGUUCUCAACUAUGACACGCAAAACGCGUGCUCCGUUGAAUGGAGUUUAUCAUG

Variants of: B1
Experiment: polymerase ribozyme fitness, log enrichment relative to wild type (log ratio); higher = more active; in vitro selection for triplet polymerase activity
Method in brief: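 Mutant libraries were PCR-built and transcribed for each subunit of a heterodimeric triplet polymerase ribozyme and selected for one round in triplicate at −7 °C, frozen, before gel excision of extended constructs and streptavidin-bead capture. Input and output libraries were Illumina-sequenced, keeping genotypes with ≥10 input reads and ≥1 read per output. Fitness is a logarithmic ratio of genotype to wild-type enrichment, in base 2, using inverse-variance-weighted replicate averages.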

| Variant | polymerase ribozyme fitness (log ratio) |
| --- | --- |
| A20G A23C G68A A91G | ≤ -4.2 |
| A20U U55G G58C A121U G128A A142C | ≤ -4.2 |
| A20C C54A U61G G70A C85U A98G A150C | ≤ -4.2 |
| A20C C87A C108U A120C | ≤ -4.2 |
| A20C C57A G84U A119U U148G U151A | ≤ -4.2 |
| A20U U55A C93A C95U | ≤ -4.2 |
| A20C G136A | -0.55 |
| A21C G46U G59C C87U C132G | ≤ -4.2 |
| A21G A40U G50A G94A G126A | ≤ -4.2 |
| A21G G50C C93U C118U A138U U145A | ≤ -4.2 |
| A21C U55G G83U | -0.166 |
| A19U G83A C85U U90G A106C U144A | ≤ -4.2 |
| A21G G62C G67U C85U A106G | ≤ -4.2 |
| A21C G50C C75A G86U A98U A107G | ≤ -4.2 |
| A20C C76A A119U | -1 |
| A20G A73U G83A | -2.36 |
| A19U U44G C93A | ≤ -4.2 |
| A20U A39C | -3.84 |
| A21G G68A | -3.89 |
| A20C C51G U56G A73G C87G G112C A115C A119U A120G G141C A150U | ≤ -4.2 |
| A21G C87G | ≤ -4.2 |

| Variant | polymerase ribozyme fitness (log ratio) |
| --- | --- |
| A20C C35G U78A | ≤ -4.2 |
| A20U A39U C51A G94C A98U C103A | ≤ -4.2 |
| A20U G42U U55G G62A | ≤ -4.2 |
| A20G A21C U31C C103A U144G | -1.73 |
| A21G U33G A52C A64C C75G C93G U151G | ≤ -4.2 |
| A20C U33G A37C A52C C79U C87G A89C A106G U109G C118U | ≤ -4.2 |
| A20U A21C A23U G25U C32G G48A A66C C79G G128U U148G | ≤ -4.2 |
| A20C U56A C93A C116A | -1.28 |
| A21U A39C C108U | ≤ -4.2 |
| A20G A142C | -1.06 |
| A21C A23U C35G G59C A91G U104G C123G A142U | ≤ -4.2 |
| A20U A21U A26G A89G C96A U145A A150G | ≤ -4.2 |
| A20C A22U U31G G92A C95A G141U | ≤ -4.2 |
| A20G A23U G81C C95A A147U | ≤ -4.2 |
| A21C U61A G70A G84U A147C | ≤ -4.2 |
| A20C A24U C51A G88A C96G | ≤ -4.2 |
| A20G U33C C36A C54U C85A G133A G140C | ≤ -4.2 |
| A20G A29U C51G C87G | ≤ -4.2 |
| A21C G46A U77C A121U | ≤ -4.2 |
| A19U G67A | ≤ -4.2 |
| A19U U53G C93G | ≤ -4.2 |

| Variant | polymerase ribozyme fitness (log ratio) |
| --- | --- |
| A20C C79A G94C | ≤ -4.2 |
| A20U A23U C35U A37C G50A C76G A89C | ≤ -4.2 |
| A20U C51U U127G U145C | ≤ -4.2 |
| A20U A26C A47U U56C A60G G92U C132U | ≤ -4.2 |
| A21G C75A C95U G140U | ≤ -4.2 |
| A21U A22C A30G G83C C87U G143C | ≤ -4.2 |
| A21C G83C C87A G92U C116G | -1.27 |
| A20C A29U A47C G50C G70C G84A U151G | ≤ -4.2 |
| A21G A39C G50U C93A A120G A138G G143A | ≤ -4.2 |
| A20G U55A G74U C85U A97U | ≤ -4.2 |
| A20U A26U A52C C57U A60G C76A G88A C118U | ≤ -4.2 |
| A20U A26C A37U C69A A91U C93A | ≤ -4.2 |
| A20U C36U A49C G68U U102G G141A | ≤ -4.2 |
| A21G A98U C129A U144A | -3.61 |
| A20U C63A G84U C87U | -3.3 |
| A20C A73C G81A U90C G92C U104G | ≤ -4.2 |
| A21U A26C | -1.48 |
| A21U A26C A40U G71A C76A A91G C96A G141C | ≤ -4.2 |
| A21C A110C | ≤ -4.2 |
| A20G A52U C57A G62U C95A G133C A150U | -1.8 |
| A20C C43U U44A U55G C79U G141A | ≤ -4.2 |

| Variant | polymerase ribozyme fitness (log ratio) |
| --- | --- |
| A21C C93A A107G A122C | ≤ -4.2 |
| A21C U31G A49C G50C C93A C105U C125A U134A | ≤ -4.2 |
| A20U A28G A29G A41G C95U A115U U144A U145A | ≤ -4.2 |
| A21U A24C C27A A73G G80C U90A | ≤ -4.2 |
| A20C U61A C63U C85U | -1.55 |
| A20C C85U A115U | -1.06 |
| A20U G25C G141A | -4.03 |
| A20U C35A A41C C95U U145A | ≤ -4.2 |
| A20U A30G C54G G59A G86A A89G U90G | ≤ -4.2 |
| A20C A40G U61G C72G G81A G141U A150C | ≤ -4.2 |
| A20G C85U A91G C95A G126C | ≤ -4.2 |
| A21C A22C G25U A29U A60C A66C U148A A150C | ≤ -4.2 |
| A21G G143A | -0.569 |
| A20U A28C C36U C43U A73C C93A | ≤ -4.2 |
| A20U U56A C76U G133A | ≤ -4.2 |
| A20G G46U A73U G84A C125A | ≤ -4.2 |
| A20C C85U A89G A106G | -2.07 |
| A20U A28U G42C G86U C93A C114U | -4.17 |
| A21G A28C C87U G136C | ≤ -4.2 |
| A20U A47U C87U A110G U135A | ≤ -4.2 |
| A21G G70U G80A C93U | ≤ -4.2 |
